Test results taken from publication PMC5700166.
The entries are a selection whose mix differs from that of the whole data set. The list includes weakly bound sequences.

Experiments:
Test in all cases: protein-binding microarray (PBM)
Conditions in all cases: PBM: ~300 nM protein, 6 mM HEPES pH 7.8, 80 mM KCl, 0.5 mM EDTA, 0.5 mM EGTA, 6% glycerol, 35 ng/ul poly-dIdC, 1% milk, 1 h, room temperature; Ap Aiptasia and Nv Nematostella (sea anemones) / Co Capsaspora / Aq Amphimedon (sponge) / Dm Drosophila / Hu human; RHD is the Rel homology domain; high values mean tight binding; most listed sequences are background and not binding sites; double strand, one strand shown
[1] = biological target: T1, GST-Ap-NF-kB RHD (UniProt A0A913YAJ5)
T1 sequence: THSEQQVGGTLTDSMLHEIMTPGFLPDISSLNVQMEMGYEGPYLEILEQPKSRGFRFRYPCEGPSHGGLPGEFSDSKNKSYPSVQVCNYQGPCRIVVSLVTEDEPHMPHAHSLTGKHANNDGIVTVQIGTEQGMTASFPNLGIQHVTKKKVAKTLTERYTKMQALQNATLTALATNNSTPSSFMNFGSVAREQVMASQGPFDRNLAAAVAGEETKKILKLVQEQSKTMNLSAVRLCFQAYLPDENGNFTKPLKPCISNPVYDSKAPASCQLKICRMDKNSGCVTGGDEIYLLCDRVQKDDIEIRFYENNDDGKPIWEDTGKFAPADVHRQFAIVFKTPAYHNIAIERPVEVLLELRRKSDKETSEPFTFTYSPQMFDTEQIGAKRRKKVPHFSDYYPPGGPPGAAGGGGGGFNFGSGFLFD

[2] = biological target: T2, GST-Nv-NF-kB (Cys allele) (UniProt E5G601)
T2 sequence: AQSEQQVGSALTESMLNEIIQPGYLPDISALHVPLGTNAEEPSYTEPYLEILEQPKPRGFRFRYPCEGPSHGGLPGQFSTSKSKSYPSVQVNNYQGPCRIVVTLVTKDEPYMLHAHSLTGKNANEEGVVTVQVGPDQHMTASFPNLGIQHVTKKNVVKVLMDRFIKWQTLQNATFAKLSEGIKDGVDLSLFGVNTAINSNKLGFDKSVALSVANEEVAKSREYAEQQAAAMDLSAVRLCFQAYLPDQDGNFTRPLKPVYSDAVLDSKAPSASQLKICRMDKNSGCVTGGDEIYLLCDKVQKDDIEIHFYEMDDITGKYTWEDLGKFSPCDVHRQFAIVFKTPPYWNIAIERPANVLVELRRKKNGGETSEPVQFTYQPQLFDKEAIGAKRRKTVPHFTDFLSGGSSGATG

[3] = biological target: T3, GST-Co-NF-kB (UniProt F1ARL5)
T3 sequence: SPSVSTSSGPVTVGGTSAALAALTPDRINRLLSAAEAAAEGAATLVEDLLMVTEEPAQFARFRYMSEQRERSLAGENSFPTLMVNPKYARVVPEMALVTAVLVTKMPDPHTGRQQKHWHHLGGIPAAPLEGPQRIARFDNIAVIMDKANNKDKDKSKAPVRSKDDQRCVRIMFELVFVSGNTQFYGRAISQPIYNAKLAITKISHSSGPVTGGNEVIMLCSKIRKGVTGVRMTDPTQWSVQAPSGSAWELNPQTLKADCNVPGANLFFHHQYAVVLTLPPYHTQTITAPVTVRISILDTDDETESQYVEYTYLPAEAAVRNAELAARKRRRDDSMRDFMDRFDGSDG

Row | Sequence | binding signal [1] [z-score] | binding signal [2] [z-score] | binding signal [3] [z-score]
1 | CCGATTAACATCAGAGAATCCCCTGATGTTAATCGGGTCTTGATTCGCTTGACGCTGCTG | 9.54 | 9.8 | 3.37
2 | CCGATTAACATCAAGGAAACTCCTGATGTTAATCGGGTCTTGATTCGCTTGACGCTGCTG | 0.0313 | -0.615 | -0.0805
3 | CCGATTAACATCACATACTCCCCTGATGTTAATCGGGTCTTGATTCGCTTGACGCTGCTG | 4.4 | 3.45 | 3.69
4 | CCGATTAACATCAGGAATTTTTATGATGTTAATCGGGTCTTGATTCGCTTGACGCTGCTG | 0.0982 | 0.425 | 0.346
5 | CCGATTAACATCACTTTTTCCCCTGATGTTAATCGGGTCTTGATTCGCTTGACGCTGCTG | 6.12 | 7.44 | 10.6
6 | CCGATTAACATCAGGAAAATTCCTGATGTTAATCGGGTCTTGATTCGCTTGACGCTGCTG | -0.786 | 0.89 | -0.864
7 | CCGATTAACATCAGGAACATCCCTGATGTTAATCGGGTCTTGATTCGCTTGACGCTGCTG | 1.46 | 1.39 | 0.592
8 | CCGATTAACATCAAAAATCCCCATGATGTTAATCGGGTCTTGATTCGCTTGACGCTGCTG | 9.63 | 10.8 | 5.31
9 | CCGATTAACATCAGGGGTAACCCTGATGTTAATCGGGTCTTGATTCGCTTGACGCTGCTG | 4.06 | 2.99 | 4.77
10 | CCGATTAACATCAATAAAACCCCTGATGTTAATCGGGTCTTGATTCGCTTGACGCTGCTG | 5.73 | 5.27 | 2.26
11 | CCGATTAACATCAGGGAATTTACTGATGTTAATCGGGTCTTGATTCGCTTGACGCTGCTG | 4.29 | 6.69 | 
12 | CCGATTAACATCAATTTCCCAGGTGATGTTAATCGGGTCTTGATTCGCTTGACGCTGCTG | 2.16 | 2.4 | 3.41
13 | CCGATTAACATCACAAAATTTCCTGATGTTAATCGGGTCTTGATTCGCTTGACGCTGCTG | 0.265 | -0.058 | 0.606
14 | CCGATTAACATCAGGGATCGCCCTGATGTTAATCGGGTCTTGATTCGCTTGACGCTGCTG | 0.998 | 1.19 | -0.183
15 | CCGATTAACATCACAACTCCCCCTGATGTTAATCGGGTCTTGATTCGCTTGACGCTGCTG | 5.84 | 4.69 | 6.16
16 | CCGATTAACATCACGGAATTCCATGATGTTAATCGGGTCTTGATTCGCTTGACGCTGCTG | 0.185 | 0.231 | -0.021
17 | CCGATTAACATCACGGAAATTCCTGATGTTAATCGGGTCTTGATTCGCTTGACGCTGCTG | 0.646 | 0.462 | 0.686

Row | Sequence | binding signal [1] [z-score] | binding signal [2] [z-score] | binding signal [3] [z-score]
18 | CCGATTAACATCAAGGATTCCCCTGATGTTAATCGGGTCTTGATTCGCTTGACGCTGCTG | 9.7 | 10.5 | 6.56
19 | CCGATTAACATCAAAAGAACCCCTGATGTTAATCGGGTCTTGATTCGCTTGACGCTGCTG | 4.18 | 3.46 | 2.76
20 | CCGATTAACATCACCGGAAATCCTGATGTTAATCGGGTCTTGATTCGCTTGACGCTGCTG | 0.78 | 0.361 | -0.511
21 | CCGATTAACATCAGGGGGTCCACTGATGTTAATCGGGTCTTGATTCGCTTGACGCTGCTG | 4.33 | 2.44 | 1.99
22 | CCGATTAACATCAAGGTTTTTCCTGATGTTAATCGGGTCTTGATTCGCTTGACGCTGCTG | 0.393 | 0.922 | 0.533
23 | CCGATTAACATCAAGGGGGGAATTGATGTTAATCGGGTCTTGATTCGCTTGACGCTGCTG | 7.34 | 7.02 | 7.24
24 | CCGATTAACATCAAAAATTCCGGTGATGTTAATCGGGTCTTGATTCGCTTGACGCTGCTG | 0.678 | 0.579 | -0.207
25 | CCGATTAACATCAGGAAAGACCATGATGTTAATCGGGTCTTGATTCGCTTGACGCTGCTG | -0.255 | 0.239 | -0.293
26 | CCGATTAACATCACGGCAATTCCTGATGTTAATCGGGTCTTGATTCGCTTGACGCTGCTG | -0.134 | -0.659 | 0.166
27 | CCGATTAACATCAGGAAGTACCCTGATGTTAATCGGGTCTTGATTCGCTTGACGCTGCTG | 3.65 | 3.73 | 0.703
28 | CCGATTAACATCACGTAAATTCCTGATGTTAATCGGGTCTTGATTCGCTTGACGCTGCTG | -0.0527 | -0.39 | 0.6
29 | CCGATTAACATCACCCTTGCAGGTGATGTTAATCGGGTCTTGATTCGCTTGACGCTGCTG | -0.215 | 0.361 | 0.345
30 | CCGATTAACATCAGGAAAAATCCTGATGTTAATCGGGTCTTGATTCGCTTGACGCTGCTG | -0.886 | -0.17 | -0.108
31 | CCGATTAACATCAAAAATTTCCGTGATGTTAATCGGGTCTTGATTCGCTTGACGCTGCTG | 0.279 | 0.366 | 0.879
32 | CCGATTAACATCATGAATTCCCATGATGTTAATCGGGTCTTGATTCGCTTGACGCTGCTG | 1.57 | 3.03 | 2.17
33 | CCGATTAACATCAGGACTGCCCCTGATGTTAATCGGGTCTTGATTCGCTTGACGCTGCTG | 3.49 | 4.13 | 0.794
